{"source": "patent US7629351B2", "about": "“N-((1R,2S,5R)-5-(tert-butylamino)-2-((S)-2-oxo-3-(6-(trifluoromethyl)quinazolin-4-ylamino) pyrrolidin-1-yl)cyclohexyl)acetamide and other modulators of chemokine receptor activity, crystalline forms and process” (Bristol-Myers Squibb Company, priority 2006, dated 2009)", "key": {"[1]": {"tested_on": "mononuclear cell recruitment to the skin", "test": "Intradermal MCP-1 challenge model in cynomolgus monkey", "type": "in vivo", "conditions": "for Eos score: eosinophils; for PMN score: neutrophils; for Total cell score: sum of mean values for each cell type", "description": "Intradermal injection of MCP-1 results in the infiltration of mononuclear cells to the injection site. This model was initially developed to assess the inhibitory effect of CCR2 antagonists on the infiltration of mononuclear cells to the skin tissue injected with human MCP-1. The cellular infiltrate can be measured semi-quantitatively by histological scoring.\nImmediately after dosing on Day 3, all animals received 2 intradermal injections of 10 μg (50 μL/injection ) of human MCP-1 (R & D Systems) and 2 intradermal injections of its DPBS control (50 μl/injection) at separate sites on the dorsal thorax. Dermal biopsies of all sites were obtained at approximately 18 hours following MCP-1 (or DPBS) challenge. Biopsies were processed for semi-quantitative histological evaluation. Representative sections of skin samples were examined by light microscopy; microscopic lesions and cellular infiltration were noted and their incidences were tabulated.\nIn addition to biopsy analysis, blood was collected and evaluated for complete blood counts and cell differentials. Also evaluated were plasma samples for compound (and metabolite) concentrations, and serum samples for systemic MCP-1 levels."}, "CCR2": {"target": "CCR2 (Homo sapiens, UniProt P41597)", "sequence (P41597 whole entry)": "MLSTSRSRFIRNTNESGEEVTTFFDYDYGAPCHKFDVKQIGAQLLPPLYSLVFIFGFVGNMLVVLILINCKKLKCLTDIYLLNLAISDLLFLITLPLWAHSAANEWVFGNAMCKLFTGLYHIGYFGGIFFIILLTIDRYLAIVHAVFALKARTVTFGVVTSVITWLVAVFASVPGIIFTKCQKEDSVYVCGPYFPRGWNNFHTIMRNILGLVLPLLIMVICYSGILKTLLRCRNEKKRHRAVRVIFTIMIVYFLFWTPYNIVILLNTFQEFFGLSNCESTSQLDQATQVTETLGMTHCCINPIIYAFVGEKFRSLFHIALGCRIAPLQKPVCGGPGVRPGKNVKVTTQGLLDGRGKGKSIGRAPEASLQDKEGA", "test": "In vivo receptor occupancy in blood of hCCR2 KI mice, 48-hour TG peritonitis model (Gaddum equation)"}, "[2]": {"conditions": "10 mg/kg, mean histological score, scale 0 to 4"}, "[3]": {"conditions": "20 mg/kg, mean histological score, scale 0 to 4"}}}
{"compound": "CC(=O)N[C@@H]1C[C@H](NC(C)(C)C)CC[C@@H]1N1CC[C@H](Nc2ncnc3ccc(C(F)(F)F)cc23)C1=O", "note": "[Example 1, N-((1R,2S,5R)-5-(tert-butylamino)-2-((S)-2-oxo-3-(6-(trifluoromethyl)quinazolin-4-ylamino)pyrrolidin-1-yl)cyclohexyl)acetamide]", "values": [{"measurement": "Mononuclear cell score (inhibition %)", "setting": "[1]; 10 mg/kg", "value": "(95%)"}, {"measurement": "Eos score", "setting": "[1]; [2]", "value": 0.8}, {"measurement": "PMN score", "setting": "[1]; [2]", "value": 0.1}, {"measurement": "Total cell score", "setting": "[1]; 10 mg/kg", "value": 1.0}, {"measurement": "Mononuclear cell score (inhibition %)", "setting": "[1]; 20 mg/kg", "value": "(95%)"}, {"measurement": "Mononuclear cell score", "setting": "[1]; 20 mg/kg, mean histological score, scale 0 to 4, MCP-1 sites", "value": 0.1}, {"measurement": "Eos score", "setting": "[1]; [3]", "value": 0.8}, {"measurement": "PMN score", "setting": "[1]; [3]", "value": 0}, {"measurement": "Total cell score", "setting": "[1]; 20 mg/kg", "value": 0.9}, {"measurement": "% free CCR2", "setting": "CCR2; 1 mg/kg", "value": 48.3, "unit": "%"}, {"measurement": "% mouse MCP-1 bound CCR2", "setting": "CCR2; 1 mg/kg", "value": 0.26, "unit": "%"}, {"measurement": "% of Example 1-bound CCR2", "setting": "CCR2; 1 mg/kg", "value": 51.4, "unit": "%"}, {"measurement": "% free CCR2", "setting": "CCR2; 25 mg/kg", "value": 8.6, "unit": "%"}, {"measurement": "% mouse MCP-1 bound CCR2", "setting": "CCR2; 25 mg/kg", "value": 0.16, "unit": "%"}, {"measurement": "% of Example 1-bound CCR2", "setting": "CCR2; 25 mg/kg", "value": 91.2, "unit": "%"}, {"measurement": "% free CCR2", "setting": "CCR2; 100 mg/kg", "value": 2.4, "unit": "%"}, {"measurement": "% mouse MCP-1 bound CCR2", "setting": "CCR2; 100 mg/kg", "value": 0.04, "unit": "%"}, {"measurement": "% of Example 1-bound CCR2", "setting": "CCR2; 100 mg/kg", "value": 97.6, "unit": "%"}]}
